Data as given in the supplement of paper PMC8728848.
The other results are listed elsewhere or left out.

Columns and labels:
Assay in all cases: glycan array binding signal (z-score within array); higher = stronger binding
Conditions in all cases: glycan notation: IUPAC condensed, linker removed
[1] = biological target: Gal(b1-3)[Fuc(a1-4)]GlcNAc(b1-6)GalNAc
In short: (§1)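 Arrays were curated from the Consortium for Functional Glycomics database, 3228 in total, and kept only where the protein sequence was available. Binding is expressed as a within-array Z-score. This score was averaged across arrays of the same protein sequence at different concentrations or buffers and across linkers, and negative values can be read as non-binding.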

[2] = biological target: Gal(b1-3)[GlcNAc(b1-6)]GalNAc
In short: as §1

[3] = biological target: Gal(b1-3)[Neu5Ac(a2-6)]GalNAc
In short: as §1

[4] = biological target: Gal(b1-3)[Neu5Ac(a2-6)]GlcNAc(b1-4)Gal(b1-4)Glc
In short: as §1

[5] = biological target: Gal(b1-3)[Neu5Ac(b2-6)]GalNAc
In short: as §1

Gal(b1-4)Gal = biological target: Gal(b1-4)Gal
In short: as §1

[6] = biological target: Gal(b1-4)GalNAc(a1-3)[Fuc(a1-2)]Gal(b1-4)GlcNAc
In short: as §1

[7] = biological target: Gal(b1-4)GalNAc(b1-3)[Fuc(a1-2)]Gal(b1-4)GlcNAc
In short: as §1

Gal(b1-4)Glc = biological target: Gal(b1-4)Glc
In short: as §1

Gal(b1-4)Glc6S = biological target: Gal(b1-4)Glc6S
In short: as §1

Gal(b1-4)GlcNAc = biological target: Gal(b1-4)GlcNAc
In short: as §1

[8] = biological target: Gal(b1-4)GlcNAc(a1-6)Gal(b1-4)GlcNAc
In short: as §1

Gal(b1-4)GlcNAc(b1-2)Man = biological target: Gal(b1-4)GlcNAc(b1-2)Man
In short: as §1

[9] = biological target: Gal(b1-4)GlcNAc(b1-2)Man(a1-3)Man(b1-4)GlcNAc(b1-4)GlcNAc
In short: as §1

[10] = biological target: Gal(b1-4)GlcNAc(b1-2)Man(a1-3)[Gal(b1-4)GlcNAc(b1-2)Man(a1-6)]Man(b1-4)GlcNAc(b1-4)GlcNAc
In short: as §1

[11] = biological target: Gal(b1-4)GlcNAc(b1-2)Man(a1-3)[Gal(b1-4)GlcNAc(b1-2)Man(a1-6)]Man(b1-4)GlcNAc(b1-4)[Fuc(a1-6)]GlcNAc
In short: as §1

[12] = biological target: Gal(b1-4)GlcNAc(b1-2)Man(a1-3)[Gal(b1-4)GlcNAc(b1-2)Man(a1-6)][Gal(b1-4)GlcNAc(b1-4)]Man(b1-4)GlcNAc(b1-4)[Fuc(a1-6)]GlcNAc
In short: as §1

[13] = biological target: Gal(b1-4)GlcNAc(b1-2)Man(a1-3)[Gal(b1-4)GlcNAc(b1-2)Man(a1-6)][GlcNAc(b1-4)]Man(b1-4)GlcNAc(b1-4)[Fuc(a1-6)]GlcNAc
In short: as §1

[14] = biological target: Gal(b1-4)GlcNAc(b1-2)Man(a1-3)[GlcNAc(b1-2)Man(a1-6)]Man(b1-4)GlcNAc(b1-4)GlcNAc
In short: as §1

[15] = biological target: Gal(b1-4)GlcNAc(b1-2)Man(a1-3)[GlcNAc(b1-4)][Gal(b1-4)GlcNAc(b1-2)Man(a1-6)]Man(b1-4)GlcNAc(b1-4)GlcNAc
In short: as §1

[16] = biological target: Gal(b1-4)GlcNAc(b1-2)Man(a1-3)[Man(a1-6)]Man(b1-4)GlcNAc(b1-4)GlcNAc
In short: as §1

[17] = biological target: Gal(b1-4)GlcNAc(b1-2)Man(a1-6)Man(b1-4)GlcNAc(b1-4)GlcNAc
In short: as §1

[18] = biological target: Gal(b1-4)GlcNAc(b1-2)Man(a1-6)[GlcNAc(b1-2)Man(a1-3)]Man(b1-4)GlcNAc(b1-4)GlcNAc
In short: as §1

[19] = biological target: Gal(b1-4)GlcNAc(b1-2)Man(a1-6)[Man(a1-3)]Man(b1-4)GlcNAc(b1-4)GlcNAc
In short: as §1

[20] = biological target: Gal(b1-4)GlcNAc(b1-2)[Gal(b1-4)GlcNAc(b1-4)]Man(a1-3)[Gal(b1-4)GlcNAc(b1-2)Man(a1-6)]Man(b1-4)GlcNAc(b1-4)GlcNAc
In short: as §1

[21] = biological target: Gal(b1-4)GlcNAc(b1-2)[Gal(b1-4)GlcNAc(b1-4)]Man(a1-3)[Gal(b1-4)GlcNAc(b1-2)[Gal(b1-4)GlcNAc(b1-6)]Man(a1-6)]Man(b1-4)GlcNAc(b1-4)GlcNAc
In short: as §1

[22] = biological target: Gal(b1-4)GlcNAc(b1-2)[Gal(b1-4)GlcNAc(b1-4)]Man(a1-3)[GlcNAc(b1-4)][Gal(b1-4)GlcNAc(b1-2)Man(a1-6)]Man(b1-4)GlcNAc(b1-4)GlcNAc
In short: as §1

[23] = biological target: Gal(b1-4)GlcNAc(b1-2)[Gal(b1-4)GlcNAc(b1-4)]Man(a1-3)[GlcNAc(b1-4)][Gal(b1-4)GlcNAc(b1-2)[Gal(b1-4)GlcNAc(b1-6)]Man(a1-6)]Man(b1-4)GlcNAc(b1-4)GlcNAc
In short: as §1

[24] = biological target: Gal(b1-4)GlcNAc(b1-2)[Gal(b1-4)GlcNAc(b1-6)]Man(a1-6)[Gal(b1-4)GlcNAc(b1-2)Man(a1-3)]Man(b1-4)GlcNAc(b1-4)GlcNAc
In short: as §1

[25] = biological target: Gal(b1-4)GlcNAc(b1-2)[Gal(b1-4)GlcNAc(b1-6)]Man(a1-6)[Gal(b1-4)GlcNAc(b1-2)Man(a1-3)]Man(b1-4)GlcNAc(b1-4)[Fuc(a1-6)]GlcNAc
In short: as §1

[26] = biological target: Gal(b1-4)GlcNAc(b1-2)[Gal(b1-4)GlcNAc(b1-6)]Man(a1-6)[GlcNAc(b1-4)][Gal(b1-4)GlcNAc(b1-2)Man(a1-3)]Man(b1-4)GlcNAc(b1-4)GlcNAc
In short: as §1

[27] = biological target: Gal(b1-4)GlcNAc(b1-2)[Gal(b1-4)GlcNAc(b1-6)]Man(a1-6)[GlcNAc(b1-4)][Gal(b1-4)GlcNAc(b1-2)[Gal(b1-4)GlcNAc(b1-4)]Man(a1-3)]Man(b1-4)GlcNAc(b1-4)[Fuc(a1-6)]GlcNAc
In short: as §1

[28] = biological target: Gal(b1-4)GlcNAc(b1-3)Gal(b1-3)GalNAc
In short: as §1

[29] = biological target: Gal(b1-4)GlcNAc(b1-3)Gal(b1-3)GlcNAc
In short: as §1

[30] = biological target: Gal(b1-4)GlcNAc(b1-3)Gal(b1-4)Glc
In short: as §1

[31] = biological target: Gal(b1-4)GlcNAc(b1-3)Gal(b1-4)GlcNAc
In short: as §1

[32] = biological target: Gal(b1-4)GlcNAc(b1-3)Gal(b1-4)GlcNAc(b1-2)Man(a1-3)[Gal(b1-4)GlcNAc(b1-3)Gal(b1-4)GlcNAc(b1-2)Man(a1-6)]Man(b1-4)GlcNAc(b1-4)GlcNAc
In short: as §1

[33] = biological target: Gal(b1-4)GlcNAc(b1-3)Gal(b1-4)GlcNAc(b1-2)Man(a1-3)[Gal(b1-4)GlcNAc(b1-3)Gal(b1-4)GlcNAc(b1-2)Man(a1-6)]Man(b1-4)GlcNAc(b1-4)[Fuc(a1-6)]GlcNAc
In short: as §1

B1: PX14367A-bth-493-35-493 (Bacteroides thetaiotaomicron) (protein)
chain: VSSDQVAVAGNAERLFNGAWYNLFEYGTTYANIGYRALQCQDDMMASDVVSRPKYGFNSSYQFNDVAIPSDGRTSFAWYLIYKTIDNCNTAISIKGDSEELRQAQGQALALRAFCYLHLVQHYQFTYLKDKDAPCVPIYTEPTTSGTKPKGKSTVAQVYQQIFDDLNLAQDYLTNYVRKGDGQKFKPNTDVVNGLMARAYLLTGQWGEAAKAAEAARKGYSLMTTTAEYEGFNNISNKEWIWGSPQTLSQSDASYNFYYLDATYVGAYSSFMADPHLMDTFVKGDIRLPLFQWMREGYLGYKKFHMRSDDTADLVLMRSAEMYLIEAEAKVRDGVALDQAVAPLNTLRTARGVGNYDVTGKTKEQVIDEILMERRRELWGEGFGITDVLRNQKAVERMALSEDMQKTEVDCWQEGGSFAKRNPLGHWFLNFPDGKAFSANSSYYLYAIPEKEINANPNL
glycan array binding signal (z-score) [1]: 0.165 | glycan array binding signal (z-score) [2]: -0.406 | glycan array binding signal (z-score) [3]: -0.359 | glycan array binding signal (z-score) [4]: -0.546 | glycan array binding signal (z-score) [5]: -0.594 | glycan array binding signal (z-score) (Gal(b1-4)Gal): -0.238 | glycan array binding signal (z-score) [6]: -0.376 | glycan array binding signal (z-score) [7]: -0.38 | glycan array binding signal (z-score) (Gal(b1-4)Glc): -0.273 | glycan array binding signal (z-score) (Gal(b1-4)Glc6S): -0.087 | glycan array binding signal (z-score) (Gal(b1-4)GlcNAc): -0.381 | glycan array binding signal (z-score) [8]: 0.007 | glycan array binding signal (z-score) (Gal(b1-4)GlcNAc(b1-2)Man): -0.268 | glycan array binding signal (z-score) [9]: 0.428 | glycan array binding signal (z-score) [10]: 1.44 | glycan array binding signal (z-score) [11]: 0.125 | glycan array binding signal (z-score) [12]: -0.615 | glycan array binding signal (z-score) [13]: -0.354 | glycan array binding signal (z-score) [14]: 0.386 | glycan array binding signal (z-score) [15]: -0.74 | glycan array binding signal (z-score) [16]: 3.6 | glycan array binding signal (z-score) [17]: 0.224 | glycan array binding signal (z-score) [18]: -0.174 | glycan array binding signal (z-score) [19]: -0.392 | glycan array binding signal (z-score) [20]: 0.239 | glycan array binding signal (z-score) [21]: -0.334 | glycan array binding signal (z-score) [22]: -0.544 | glycan array binding signal (z-score) [23]: 1.66 | glycan array binding signal (z-score) [24]: 0.719 | glycan array binding signal (z-score) [25]: -0.167 | glycan array binding signal (z-score) [26]: 0.503 | glycan array binding signal (z-score) [27]: -0.444 | glycan array binding signal (z-score) [28]: -0.505 | glycan array binding signal (z-score) [29]: -0.098 | glycan array binding signal (z-score) [30]: -0.493 | glycan array binding signal (z-score) [31]: -0.81 | glycan array binding signal (z-score) [32]: 3.94 | glycan array binding signal (z-score) [33]: 7.69
